In all, about 150,000 compounds went through this assay and about 540 (0.36%) showed an effect of 50% or more. Some of the results follow.

The term % Inhibition denotes the change of the read-out against control, counted positive when it falls.

This assay relates to Plasmodium falciparum. Nature of the assay: Primary screen in NF54 nanoGlo assay, in single point, at 2uM, 72h; a lower Z score goes with more inhibition. Format: functional, Erythrocyte. To be noted: timepoint 72 hour.
`Cc1c(C(=O)NC(C)C2CCCO2)cnn1C1CCS(=O)(=O)C1` (stereo unspecified): the “% Inhibition” value is -7% and the Z score is recorded as 0.77.

With `Cc1nc(NC(=O)C(=O)NCC2(O)CCCCC2)sc1C`, the “% Inhibition” value was determined as 2% and the Z score was -0.23.

Consider `O=C(O)c1cc(NS(=O)(=O)c2cccs2)ccc1N1CCC(N2CCCCC2)CC1`, for which the “% Inhibition” value is listed as -6% and the Z score was determined as 0.62.

As to `CCC1=NO[C@H](C(=O)NC2CCS(=O)(=O)CC2)C1`, the “% Inhibition” value was -11% and the Z score is reported as 1.65.

`CC(C)(C)c1noc(Cn2cc(CCc3ccccc3)nn2)n1`: the “% Inhibition” value is listed as -4% and the Z score is 0.86.

Regarding `CC(C)n1cnnc1[C@H]1CCCN(c2ncc(Cl)cc2Cl)C1`, the “% Inhibition” value is recorded as -9% and the Z score is 1.65.

As for `COCCn1c(=O)c(CNC[C@H]2COc3ccccc3O2)cc2cc(C)ccc21`, the “% Inhibition” value is -12% and the Z score was 1.78.

Consider `Cc1cc(-c2cccc(C(=O)NCCc3ncnn3C)c2)cc(C)n1`, for which the “% Inhibition” value is recorded as -4% and the Z score was found to be 0.51.

In the case of `O=C(NC[C@H]1CCCO1)c1coc(CN(Cc2ccc(C(F)(F)F)cc2)Cc2ccc3c(c2)OCO3)n1`, the “% Inhibition” value worked out at 4% and the Z score was -0.35.

For the molecule `Cc1noc(CCCC(=O)N2CCC[C@H]2c2ccncc2)n1`, the “% Inhibition” value was -4% and the Z score turned out to be 0.57.

Turning to `Cc1nnnn1[C@@H](C(=O)N1CCC2(CC1)COC(=O)O2)c1ccccc1`, the “% Inhibition” value is listed as -3% and the Z score turned out to be 0.33.

As to `Cc1cnc(NC(=O)c2cc3c(s2)CCCC3)s1`, the “% Inhibition” value is -12% and the Z score came to 1.

On to `O=C(c1ccncc1)n1nc(Cc2ccccc2)c2ccccc2c1=O`, for which the “% Inhibition” value is -7% and the Z score came to 1.05.

For the molecule `CN(CC1(C)COC1)C(=O)[C@@H]1CCCCCN1C`, the “% Inhibition” value is given as -2% and the Z score came to 0.36.

Regarding `O=C(CN(CC1CCCO1)C(=O)C1CC1(Cl)Cl)N1CCCC1` (stereo unspecified), the “% Inhibition” value is -19% and the Z score came to 1.85.

For `Cn1[nH]c(=O)c2cc(Br)cnc21`, the “% Inhibition” value is given as -12% and the Z score stood at 2.44.

Consider `CN(CCCN=C(N)NC1CCC(O)CC1)c1ccccc1` (stereo unspecified), for which the “% Inhibition” value is listed as -19% and the Z score stood at 1.78.

On to `COC(=O)N1CC[C@H](NC(=O)OC(C)(C)C)C1`, for which the “% Inhibition” value is 33% and the Z score is -0.92.

As to `O=C(O)[C@H]1CCCN(C(=O)c2ccc(-c3ccccc3)[nH]2)C1`, the “% Inhibition” value is -10% and the Z score was 1.4.

With `CN(CC(=O)Nc1cc(F)cc(F)c1)c1cc(C(F)(F)F)nc(-c2ccncc2)n1`, the “% Inhibition” value is recorded as -1% and the Z score is on record as 0.2.

`CC1(C)CN(C(=O)CCc2ccccn2)C[C@]1(C)O`: the “% Inhibition” value is given as -6% and the Z score turned out to be 1.1.

As to `CC(C)C[C@H]1C(=O)NCCCN1C(=O)NC1CCCCC1`, the “% Inhibition” value stood at 6% and the Z score is -0.47.

Regarding `COCCc1ccc2oc(NCc3cnn(C)c3)nc2c1`, the “% Inhibition” value is 3% and the Z score is reported as -0.41.

For the molecule `O=C(Nc1nc2c(F)cccc2s1)[C@H]1CCOC1`, the “% Inhibition” value is given as -11% and the Z score is reported as 2.18.

Consider `Cc1noc(C)c1S(=O)(=O)NCc1noc(C(F)(F)F)n1`, for which the “% Inhibition” value is reported as -8% and the Z score worked out at 1.52.

For `COc1ccc(F)cc1C(NC(=O)c1ccnnc1)[C@H]1C[C@H](O)C1` (stereo partly specified), the “% Inhibition” value amounted to 29% and the Z score is -3.81.

For the molecule `CN(C)C[C@H]1CCN(C(=O)N(c2ccccc2)c2ccccc2)C1`, the “% Inhibition” value was found to be 11% and the Z score is given as -1.58.

As for `C[C@H]1CCc2ccccc2N1CCNC1=NS(=O)(=O)c2ccccc21`, the “% Inhibition” value is reported as -10% and the Z score amounted to 1.31.

Regarding `CC(C)(C)OC(=O)NCCN(Cc1ccccc1)C1CC1`, the “% Inhibition” value worked out at 0% and the Z score is reported as -0.06.

For the molecule `CC(C)Cc1cnc(NC(=O)N(C)CCCn2ccnc2)s1`, the “% Inhibition” value is given as -2% and the Z score is 0.26.

Regarding `Cc1cc(Cl)c2c(c1)[C@@H](NCc1cncn1C)CCCO2`, the “% Inhibition” value stood at 2% and the Z score is reported as -0.27.

Take `O=C(C1CC1c1ccccc1)N1CCOC2(CCC2)C1` (stereo unspecified): the “% Inhibition” value is on record as -7% and the Z score amounted to 0.77.

As for `Cc1ccc(S(=O)(=O)NCc2nc(C(=O)N3CCC(C)CC3)c(C)o2)cc1C`, the “% Inhibition” value was found to be 5% and the Z score is -0.68.

As to `COc1ccc(NC(=O)C2[C@@H]3C=C[C@]4(O3)C(C(=O)NC3CCCCC3)N(Cc3ccccc3Cl)C(=O)[C@H]24)cc1` (stereo partly specified), the “% Inhibition” value is on record as -5% and the Z score is listed as 0.81.

Turning to `Cc1ocnc1C(=O)NCCc1c[nH]c2ccccc12`, the “% Inhibition” value is -34% and the Z score worked out at 3.97.

For the molecule `CC(C(=O)O)C(NC(=O)c1cc(N2CCCC2=O)ccc1F)c1ccccc1` (stereo unspecified), the “% Inhibition” value was -8% and the Z score came out at 1.

For `COCCN(CCOc1ccccc1F)C(=O)c1n[nH]c2c1COCC2`, the “% Inhibition” value was -13% and the Z score came out at 2.45.

For `CC(C)c1nnc(-c2sccc2NC(=O)c2ccc(C#N)cc2)o1`, the “% Inhibition” value is -9% and the Z score was determined as 0.92.

As for `CCCC(=O)Nc1ccc(CNC(=O)c2cncn2C)cc1`, the “% Inhibition” value was -6% and the Z score turned out to be 0.91.

Take `CN(C[C@H]1CC(=O)N(C2CCCC2)C1)C(=O)c1ccc(-c2cncnc2)cc1`: the “% Inhibition” value is -3% and the Z score is 0.51.

Turning to `CC(=O)Nc1nonc1N(C(C)=O)C(C)=O`, the “% Inhibition” value is recorded as -7% and the Z score is 1.23.

`CC1(C)CCc2nc(CNCC3(CS(C)(=O)=O)CC3)sc2C1`: the “% Inhibition” value is recorded as -16% and the Z score turned out to be 2.98.

In the case of `NC(=NOCC(=O)NC1CCCCCC1)c1ccc(Cl)cc1`, the “% Inhibition” value is reported as -15% and the Z score came out at 2.97.

For the origin of these results see ChEMBL document CHEMBL4888484, “Replenishing the malaria drug discovery pipeline: Screening and hit evaluation of the MMV Hit Generation Library 1 (HGL1) against asexual blood stage Plasmodium falciparum ,using a nano luciferase reporter read-out” (2022).
